One molecule from US20250144230A1, “LINKERS FOR USE IN ANTIBODY DRUG CONJUGATES” (Orum Therapeutics, Inc., priority 2021, published 2025) can be followed below.

A value given as a limit tells only on which side of the number the result lay.

One experiment has as its system MV-4-11 cells. The experiment in a line: In vitro MV-4-11 antiproliferation assay (alamarBlue). It is filed as cell-based, human. The settings on record: 4 days. Here is the method: MV-4-11 cells were exposed to varying concentrations of conjugates or antibodies for 4 days with/without 1 μM of the blocking antibody Gemtuzumab or Trastuzumab. Viability of the cells was determined by alamarBlue. The antiproliferative activity of the gemtuzumab conjugate of Compound (XL) and the unconjuaged BRD4 degrader small molecule Compound 40-3 are showin in FIG. 13. […] The antibodies alone were not active up to […].

The target in a further experiment is T1, BRD4 (Homo sapiens, UniProt O60885).
T1 construct: endogenous in cells; host or cells: MV4-11
The experiment in a line: In vitro BRD4 protein degradation assay (Western blot). It is filed as cell-based. The settings on record: MV4-11 cells, overnight. Here is the method:
The ability of the claimed conjugates to degrade BRD4 was measured using an in vitro degradation assay. MV4-11 cells were incubated with test article overnight. Protein was loaded to 4-12% NuPAGE Bis-Tris gel. Western blot with rabbit anti-BRD4 Ab (Cell Signaling #13440) was performed at 1:1,000 dilution and re-blotting with β-actin HRP (Cell Signaling #5125) was performed at 1:1,000. The degradation activity of the gemtuzumab conjugate Compound (XL) and the unconjuaged BRD4 degrader small molecule Compound 40-3 are shown in FIG. 14.
Background: Immunoblotting shows a protein as a band on a membrane.

B1: gemtuzumab conjugate of Compound (XL) (conjugate, chains of the INN, looked up)
heavy: EVQLVQSGAEVKKPGSSVKVSCKASGYTITDSNIHWVRQAPGQSLEWIGYIYPYNGGTDYNQKFKNRATLTVDNPTNTAYMELSSLRSEDTAFYYCVNGNPWLAYWGQGTLVTVSSASTKGPSVFPLAPCSRSTSESTAALGCLVKDYFPEPVTVSWNSGALTSGVHTFPAVLQSSGLYSLSSVVTVPSSSLGTKTYTCNVDHKPSNTKVDKRV[no letters for human IgG4 Fc with S228P (EU numbers)]
light: DIQLTQSPSTLSASVGDRVTITCRASESLDNYGIRFLTWFQQKPGKAPKLLMYAASNQGSGVPSRFSGSGSGTEFTLTISSLQPDDFATYYCQQTKEVPWSFGQGTKVEVKRTVAAPSVFIFPPSDEQLKSGTASVVCLLNNFYPREAKVQWKVDNALQSGNSQESVTEQDSKDSTYSLSSTLTLSKADYEKHKVYACEVTHQGLSSPVTKSFNRGEC
modifications: conjugated to Compound (XL)
For the molecule B1, the “antiproliferative activity against MV-4-11 cells (in words)” value with MV-4-11 cells (test article alone) is recorded as “highly active”. The “loss of activity when CD33 surface antigens were presaturated with gemtuzumab (times less active)” value with MV-4-11 cells (with 1 μM blocking antibody Gemtuzumab) is given as roughly 1000. The “effect of preblocking with trastuzumab on conjugate activity” value in the experiment with MV-4-11 cells (with 1 μM blocking antibody Trastuzumab (no HER2 expression in MV-4-11)) is “no effect on conjugate activity”. The “reduction in BRD4 protein band intensity” value in the experiment with BRD4 (10 nM) is greater than 70%. For the same molecule, the “concentration dependence of BRD4 depletion” value with BRD4 is on record as “dependent on conjugate concentration”.
